# Test results: PubChem BioAssay (Tox21)
# Active and inactive are the calls of the source. Unless noted, calls follow the shape of the dose curve; as a rule, active = well fitted curve in the direction sought with a large enough effect in the repeat runs; inconclusive = weak or mixed curves; inactive = no such curve, though single readings can be large; an effect the other way counts as inactive or inconclusive.
# Experiments:
# [1] = biological target: Androgen receptor (Homo sapiens) (UniProt P10275); assay: qHTS assay to identify small molecule agonists of the androgen receptor (AR) signaling pathway (AID 743036; active = well fitted activation curve with a large enough effect in the signal ratio in the repeat runs, with a control signal flat, not every such curve was filed as active; inconclusive = weak or mixed curves, or effect the other way; inactive = no such curve, though single readings can be large or run the other way; the % refers to the signal ratio; also: potency is read from the fitted curve at half-maximal effect; as to activation: % is scaled to controls: 0 for no effect and ±100 for the full control effect); settings: HEK293 AR-UAS-bla GripTite, beta-lactamase FRET ratio, 16 h; activation: at 62.4 µM (top of the series) unless noted
# Outline: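 Quantitative HTS of the Tox21 10K library in HEK293 cells bearing a stably integrated UAS-controlled beta-lactamase reporter. Compound exposure lasted 16 h at 37C. Reporter activity was detected by FRET substrate fluorescence after 2 h at room temperature.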
# [2] = biological target: Androgen receptor (Homo sapiens) (UniProt P10275); assay: qHTS assay to identify small molecule agonists of the androgen receptor (AR) signaling pathway using the MDA cell line (AID 743040; also: nearly all actives have a fitted effect of over 20% in size; also: potency is read from the fitted curve at half-maximal effect; as to activity change: % is scaled to controls: 0 for no effect and ±100 for the full control effect); settings: MDA-kb2 AR-luc cells, MMTV luciferase, 16 h; activity change: at 70.3 µM (top of the series), active compounds read high unless noted
# Outline: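 MDA-kb2 breast carcinoma cells stably carrying an MMTV-driven luciferase reporter (AR- and GR-responsive) were seeded and held 5 h at 37C, 0% CO2, then exposed to compounds in DMSO for 16 h. Luminescence was read 30 min after ONE-Glo addition.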
# [3] = qHTS assay to identify small molecule antagonists of the estrogen receptor alpha (ER-alpha) signaling pathway - cell viability counter screen (AID 743074; calls by dose curve; also: nearly all actives have a fitted effect of over 45% in size; also: potency is read from the fitted curve at half-maximal effect); settings: ERalpha-bla HEK293 viability, CellTiter-Glo luminescence, 18 h; series mostly up to 69.4 µM
# [4] = qHTS assay to identify small molecule antagonists of the androgen receptor (AR) signaling pathway using the MDA cell line - cell viability counter screen (AID 743041; also: potency is read from the fitted curve at half-maximal effect; nearly all actives have a fitted effect of over 45% in size); settings: MDA-kb2 viability, CellTiter-Fluor, 16 h, cells co-treated with R1881 androgen agonist; viability change, negative = cytotoxic: at 70.3 µM (top of the series) unless noted
# Outline: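 MDA-kb2 AR-luc human breast carcinoma cells (MMTV-luciferase, AR/GR responsive) were treated with compounds plus R1881 agonist for 16 h at 37 °C. Viability was read as CellTiter-Fluor fluorescence in the same wells as the reporter assay.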
# [5] = qHTS assay to identify small molecule antagonists of the thyroid receptor (TR) signaling pathway - cell viability counter screen (AID 743064); settings: GH3.TRE-Luc viability, CellTiter-Fluor, 24 h; activity change, negative = cytotoxic: at 70.3 µM (top of the series) unless noted; also: nearly all actives have a fitted effect of over 50% in size; also: potency is read from the fitted curve at half-maximal effect; as to activity change, negative = cytotoxic: % is scaled to controls: 0 for no effect and ±100 for the full control effect
# Outline: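 Rat GH3 pituitary tumor cells stably expressing two TR response elements driving luciferase were plated, rested 4 h, then dosed with library compounds and T3 (1 nM final). After 23.5 h at 37 °C, CellTiter-Fluor was added for 30 min and fluorescence recorded.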
# [6] = tested on: thyroid hormone receptor (rat, GH3 cells); assay: qHTS assay to identify small molecule agonists of the thyroid receptor (TR) signaling pathway (AID 743066; calls by dose curve; also: potency is read from the fitted curve at half-maximal effect; as to activation: % is scaled to controls: 0 for no effect and ±100 for the full control effect); settings: GH3.TRE-Luc cells, TR agonist luciferase, 24 h; activation: at 83.9 µM (top of the series) unless noted
# [7] = biological target: Estrogen receptor (Homo sapiens) (UniProt P03372); assay: qHTS assay to identify small molecule antagonists of the estrogen receptor alpha (ER-alpha) signaling pathway (AID 743069; active = well fitted curve in the direction sought with a large enough effect in the signal ratio in the repeat runs, not every such curve was filed as active; inconclusive = weak or mixed curves, or effect the other way; inactive = no such curve, though single readings can be large or run the other way; the % refers to the signal ratio; also: potency is read from the fitted curve at half-maximal effect); settings: HEK293 ER-alpha-UAS-bla, beta-lactamase ratio, antagonist mode
# Outline: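 HEK293 cells stably carrying an ER-alpha-UAS-bla beta-lactamase reporter were pre-cultured overnight in 2% charcoal-stripped FBS medium. Test compounds in DMSO were added together with 17beta-estradiol for 18 hr at 37C. Read-out was fluorescence after 2 hr with LiveBLAzer B/G FRET substrate at room temperature.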
# [8] = biological target: Estrogen receptor (Homo sapiens) (UniProt P03372); assay: qHTS assay to identify small molecule agonists of the estrogen receptor alpha (ER-alpha) signaling pathway (AID 743075; calls by dose curve; also: potency is read from the fitted curve at half-maximal effect); settings: HEK293 ER-alpha-UAS-bla, beta-lactamase FRET ratio, 18 h; series mostly up to 70.1 µM
# [9] = biological target: Androgen receptor (Homo sapiens) (UniProt P10275); assay: qHTS assay to identify small molecule antagonists of the androgen receptor (AR) signaling pathway using the MDA cell line (AID 743042; also: % is scaled to controls: 0 for no effect and ±100 for the full control effect; nearly all actives have a fitted effect of over 55% in size); settings: MDA-kb2 AR-luc, MMTV luciferase, R1881 antagonist, 16 h; activity change, negative = inhibition: at 70.3 µM (top of the series)
# Outline: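 MDA-kb2 cells (human breast carcinoma, stably carrying an MMTV-luciferase reporter responsive to AR and GR) were plated at 3,000 cells/well and preincubated 5 hr at 37C, then given compound plus R1881 agonist for 16 h. ONE-Glo luminescence was read.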
# [10] = qHTS assay to identify small molecule antagonists of the thyroid receptor (TR) signaling pathway (AID 743065); settings: GH3.TRE-Luc, T3-stimulated luciferase inhibition, 23.5 h; series mostly up to 70.3 µM; also: potency is read from the fitted curve at half-maximal effect; nearly all actives have a fitted effect of over 55% in size
# Outline: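 GH3.TRE-Luc rat pituitary cells carrying two TR response elements driving luciferase were plated for 4 h, given compound plus 1 nM T3 (final), and incubated 23.5 h at 37 C. ONE-Glo luminescence measured reporter inhibition; CellTiter-Fluor fluorescence tracked cytotoxicity.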
# [11] = activity, negative = inhibition: at 69.4 µM (top of the series) unless noted
# Tags tell the direction and shape of the fitted curve or compound fluorescence and quenching.
# Chain of UniProt P03372 (P03372 whole entry, looked up): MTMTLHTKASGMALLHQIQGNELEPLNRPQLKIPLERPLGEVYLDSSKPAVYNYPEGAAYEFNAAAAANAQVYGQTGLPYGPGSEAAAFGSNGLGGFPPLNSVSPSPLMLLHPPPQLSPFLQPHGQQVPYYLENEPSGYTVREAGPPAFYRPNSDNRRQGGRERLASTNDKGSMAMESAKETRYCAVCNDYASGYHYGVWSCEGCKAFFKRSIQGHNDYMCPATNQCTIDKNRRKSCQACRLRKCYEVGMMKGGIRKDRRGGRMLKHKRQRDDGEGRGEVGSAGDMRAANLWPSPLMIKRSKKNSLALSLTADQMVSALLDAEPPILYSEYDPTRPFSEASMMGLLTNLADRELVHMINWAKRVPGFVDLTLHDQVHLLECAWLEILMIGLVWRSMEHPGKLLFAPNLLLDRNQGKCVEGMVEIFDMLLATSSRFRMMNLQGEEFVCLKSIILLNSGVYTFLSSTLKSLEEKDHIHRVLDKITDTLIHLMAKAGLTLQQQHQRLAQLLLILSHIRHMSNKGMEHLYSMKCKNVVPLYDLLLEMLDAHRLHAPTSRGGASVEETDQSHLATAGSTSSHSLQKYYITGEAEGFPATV
# Chain of UniProt P10275 (P10275 whole entry, looked up): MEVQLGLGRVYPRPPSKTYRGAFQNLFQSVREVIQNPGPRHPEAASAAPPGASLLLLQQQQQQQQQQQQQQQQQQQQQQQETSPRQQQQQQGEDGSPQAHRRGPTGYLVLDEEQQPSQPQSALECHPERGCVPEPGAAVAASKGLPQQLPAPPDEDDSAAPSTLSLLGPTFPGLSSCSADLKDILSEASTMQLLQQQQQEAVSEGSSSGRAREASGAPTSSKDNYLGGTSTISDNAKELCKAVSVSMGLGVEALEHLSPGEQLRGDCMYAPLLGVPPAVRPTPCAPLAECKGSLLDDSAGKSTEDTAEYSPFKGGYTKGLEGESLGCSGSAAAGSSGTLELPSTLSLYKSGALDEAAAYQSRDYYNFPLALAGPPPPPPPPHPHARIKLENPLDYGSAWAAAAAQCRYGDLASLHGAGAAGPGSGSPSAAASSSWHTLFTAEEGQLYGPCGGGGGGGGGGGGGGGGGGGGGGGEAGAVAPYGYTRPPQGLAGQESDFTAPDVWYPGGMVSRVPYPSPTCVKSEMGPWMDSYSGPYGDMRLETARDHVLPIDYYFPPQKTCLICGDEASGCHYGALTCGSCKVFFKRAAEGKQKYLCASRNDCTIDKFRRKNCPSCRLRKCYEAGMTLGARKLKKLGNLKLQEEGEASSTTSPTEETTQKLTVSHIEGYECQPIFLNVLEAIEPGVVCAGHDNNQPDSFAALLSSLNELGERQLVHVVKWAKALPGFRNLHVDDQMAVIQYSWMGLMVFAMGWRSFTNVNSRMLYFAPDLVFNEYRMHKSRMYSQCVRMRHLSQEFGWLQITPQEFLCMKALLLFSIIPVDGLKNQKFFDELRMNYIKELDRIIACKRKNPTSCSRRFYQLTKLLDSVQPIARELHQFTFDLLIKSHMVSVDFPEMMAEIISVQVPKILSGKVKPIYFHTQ
smiles,measurement,setting,value
NCCCN1CCOCC1,Potency,[1],inactive
COc1ccccc1OC(=O)Oc1ccccc1OC,Potency,[1],inactive
OCCN1C[C@H](O)[C@@H](O)[C@H](O)[C@H]1CO,Potency,[1],inactive
same,Potency,[2],inactive
same,Potency,[3],inactive
C=C(C)C(=O)OCCCC,activation,[1],inconclusive: 23.8% [at 79.1 µM]
same,Potency,[2],"inconclusive: 9.88 µM [activator, partial curve]"
Cc1ccc2c(Cl)cc(Cl)c(O)c2n1,Potency,[1],inconclusive: 9.52 µM [activator]
same,Potency,[4],active: 9.44 µM
same,Potency,[5],active: 1.19 µM
same,Potency,[6],"inconclusive: 0.422 µM [inhibitor, partial curve, poor fit]"
same,Potency,[7]; [11],"inconclusive: 26.8 µM [fluorescent, single point]"
same,Potency,[3],"inconclusive: 1.9 µM [cytotoxic, full curve]"
same,Potency,[8],"inconclusive: 1.2 µM [activator, full curve, poor fit]"
CCCCNC(=O)NCCCC,activation,[1],inconclusive: 16.3%
Cc1nc(C)c(C)nc1C,Potency,[1],inactive
CC(C)=CC=O,Potency,[1],"inconclusive: 13.1 µM [activator, single point]"
O=C(c1ccc(O)cc1)c1ccc(O)cc1,Potency,[8],active: 17.4 µM [inconclusive]
CC(C)c1ccc2oc3nc(N)c(C(=O)O)cc3c(=O)c2c1,Potency,[8],"inconclusive: 6.74 µM [fluorescent, full curve, poor fit]"
CCN1CCN(c2cc3c(cc2F)c(=O)c(C(=O)O)cn3C2CC2)CC1,Potency,[9],inactive
C/C(Cl)=C/CCl,Potency,[9],inactive
same,Potency,[7]; [11],"inconclusive: 3.15 µM [inhibitor, full curve]"
OCC(O)CS (stereo unspecified),"activity change, negative = cytotoxic",[5],inconclusive: 38.4%
N#C/C(=C1\SCC(c2ccccc2Cl)S1)n1ccnc1 (stereo unspecified),Potency,[5],"inconclusive: 11.9 µM [rising, full curve, poor fit]"
Oc1ccc(/C=C/c2cc(O)cc(O)c2)cc1,Potency,[6],inactive
same,Potency,[7]; [11],"inconclusive: 24.5 µM [fluorescent, partial curve, poor fit]"
same,"activity, negative = inhibition",[7]; at 32.6 µM (top of the series),inconclusive: 3.68%
same,"activity, negative = inhibition",[7]; at 79.1 µM (top of the series),inconclusive: -28.9%
CC(C)C(=O)O,Potency,[4],"inconclusive: 6.78 µM [rising, single point]"
same,"activity change, negative = cytotoxic",[5],inconclusive: 12.5%
same,Potency,[6],inactive
same,Potency,[3],inactive
CC(C)OC(=O)C(C)N(C(=O)c1ccccc1)c1ccc(F)c(Cl)c1 (stereo unspecified),Potency,[4],"inconclusive: 68.6 µM [cytotoxic, single point]"
same,Potency,[5],"inconclusive: 61.1 µM [cytotoxic, single point]"
Oc1ccc(C(O)CNCCCCCCNCC(O)c2ccc(O)c(O)c2)cc1O (stereo unspecified),Potency,[4],"inconclusive: 26.6 µM [cytotoxic, partial curve]"
same,Potency,[10],active: 29.8 µM
CCOC(CN1CCN(CC(C)C(=O)c2ccccc2)CC1)c1ccccc1 (stereo unspecified),Potency,[4],"inconclusive: 33.5 µM [cytotoxic, partial curve, poor fit]"
same,Potency,[5],"inconclusive: 33.5 µM [cytotoxic, single point]"
same,Potency,[10],"inconclusive: 29.8 µM [inhibitor, single point]"
O=C(CCC1CCN(Cc2ccccc2)CC1)c1ccc2c(c1)NCCCC2,Potency,[4],inconclusive: 33.5 µM [cytotoxic]
same,Potency,[5],"inconclusive: 10.6 µM [cytotoxic, full curve, poor fit]"
same,Potency,[3],"inconclusive: 9.52 µM [cytotoxic, partial curve]"
CC1=NN(c2cc(S(=O)(=O)O)ccc2Cl)C(=O)C1N=Nc1ccccc1 (stereo unspecified),Potency,[4],active: 61.1 µM
same,Potency,[5],"inconclusive: 68.6 µM [cytotoxic, partial curve]"
C[N+]1(CC2COC(c3ccccc3)(C3CCCCC3)O2)CCCCC1 (stereo unspecified),Potency,[4],"inconclusive: 33.5 µM [cytotoxic, single point]"
same,"activity change, negative = cytotoxic",[5],inconclusive: 30.5%
same,Potency,[7]; [11],inactive
O=S(=O)(O)c1ccc2ccccc2c1,Potency,[4],"inconclusive: 54.6 µM [cytotoxic, partial curve, poor fit]"
same,Potency,[5],"inconclusive: 0.864 µM [rising, full curve, poor fit]"
same,Potency,[10],"inconclusive: 68.7 µM [inhibitor, partial curve, poor fit]"
CCOc1ccc(N=Nc2ccc(/C=C/c3ccc(N=Nc4ccc(OCC)cc4)cc3S(=O)(=O)O)c(S(=O)(=O)O)c2)cc1,Potency,[4],active: 53.6 µM
same,Potency,[5],active: 47.8 µM
CC[N+](C)(CC)CCOC(=O)C(O)(c1ccccc1)C1CCCCC1 (stereo unspecified),Potency,[4],"inconclusive: 29.8 µM [rising, partial curve, poor fit]"
same,Potency,[5],"inconclusive: 26.6 µM [rising, partial curve, poor fit]"
Cc1nn(C)c(Oc2ccccc2)c1/C=N/OCc1ccc(C(=O)OC(C)(C)C)cc1,Potency,[4],active: 0.0077 µM
same,Potency,[5],"inconclusive: 68.6 µM [cytotoxic, single point]"
same,Potency,[10],"inconclusive: 344 µM [inhibitor, partial curve, poor fit]"
same,activation,[6],inconclusive: -9.85% [phenotype inactive]
same,"activity, negative = inhibition",[7]; [11],inconclusive: -52.8%
same,Potency,[3],"inconclusive: 0.0138 µM [cytotoxic, full curve]"
same,Potency,[8],"inconclusive: 0.0389 µM [falling, full curve]"
